Reference: the supplement of paper PMC12632987
In all, about 4,500 sequences were measured (“median log2 fold change of GCK-ALFA target abundance (FLAG IP / Myc IP barcode read proportion)”: median about 0.078, lowest 2% from about -0.6 on). This is one part of the list.

B1: GBRAP_184_5214 (protein)
chain: KLVNRAVEAETAEEAIEKSEKVVEEAEKEGVELNLVVFAKNMSIEEIEEVMKYLSELKKEGKIKDAILVIEDDLSEEEIDEILKLADKYGIKVVLALPDE
B2: GBRAP_128_3306 (protein)
chain: MDEEALAEAEELVRRMVEADVEEAAELTRRIVALMATLSPEERERVAEIMEKAFEELDAEKLEAVADVLRAERPTLDPETAREVAGLEVEALNQAVEKEE
B3: GBRAP_160_4563 (protein)
chain: MEEAEKLVKELREDVEKTLEETKNDSVENLKVALEGVIGSHAMEAAEDPRFTDEQVDVLLDARDEISEYLKKHKNASVEEIKKKVLEIVEKAGKEILALA
B4: GBRAP_160_3982 (protein)
chain: EERYEKIIKFIDETFEEAIKLIEGETHEERVTIVEGHGGQILMMLMSDENVSDEAEEKVAEIIDELVEYLKENPDLTLEEIKELIKEAREKIKEVLKEAF
B5: GBRAP_52_6301 (protein)
chain: MREEAERLAEELLELMRAGRREEAEALLKEIVETKSEEFIRLLAEVLARRAEEADEEEQDLIFEIMEMLADALLEGGYDEAFAGDLLALVAAAIYKAELR
B6: GBRAP_139_3734 (protein)
chain: SAEDAAVAEVVALTRQSVATGGALVAEIADALAALDEATAERAADAMAEVMKSQPFDVVETLFDALIETLLTDHGDEDLATIVEAARNRALAEVAVREEA
B7: GBRAP_43_5748 (protein)
chain: DRELVEGAVDTVLLMAEDPRVSPETVLRAFKAALDLIADTGVKLKDGLTAATAAVAARLSPEQVRALIAHIEELAKKSPEVKETFEAAKAVLEAALAARE
B8: GBRAP_160_4762 (protein)
chain: KEELKKLKEEIEEIFKEHIELLKEVPKEKAVTVVEGAMGEVLMLAFSSEAVSDELEEKIGEIMDEAVERAKENKDAPVEVHIKILEEAREKILELIEEEI
B9: GBRAP_74_6570 (protein)
chain: SEEKIKEIKEVAATKSLKEFSEYLLENIDELDEESLLVALEELKKLVEENKDTLTPEELEAAAEAAAALADKAFTTESSDETLDAAVELLTAVVEAEKKF
B10: GBRAP_39_5687 (protein)
chain: EKEEEAEDTVSYLEALAAKYLYETGISLEEAYERAKEILTKLAKEHPELKELIEELIKLADEKGEEAKLALIGVAVLIEEGTPLEEIKKNIELIIYYFKS
B11: GBRAP_160_4105 (protein)
chain: SEKIEEFLEEFREVFEEVLELYDEISAEELVNFYEVELSSVILDAKDELNLSDETVDELLEVRDEAAERLRENYDASREEIREILEEAFERMEEVLEENE
B12: GBRAP_128_3435 (protein)
chain: AEEAKLAEAKALIDKILKASVEEVYELTKELLALFGTLSPEAAQEVADYVISQIPKLTKEQLEALADAIREQRPTLDPYHANLANEVEVEALNQILELEE
B13: GBRAP_137_3628 (protein)
chain: AVVEIRVERYEDVVEITVTLADAELAEAVEELVLDVAHEHGALAVSVERREDGTLEVTVWVPRERAEALLEELVRRLREELGLEVRVEDLDTGEVEEFRP
B14: GBRAP_184_5222 (protein)
chain: ETVRESVEAKTAEEAIKKSNEVIEKAEKEGKELDLHVFLENMSLEEIEKVMKYLSELKKEGKIKNATVTILDERSEEEIDKLVEIADKYGIRLVVALPDE
B15: GBRAP_74_6561 (protein)
chain: SEEKIKEIKEVAETKSILEFANYILEHIDELDEEALLVAAEELARKVEEEKDELTPEELEAVAEAVAALADKVFTEDASREALEAMNRLIALVVELEKKA
B16: GBRAP_52_6337 (protein)
chain: AAAAIEAAAEAIADAVVAGRLDEAVALTREVAETKSLEEVRAMLLRTAELIAERLPDREDLAFEAIFRLADVVEEVLGNEELADEVEAHMARLLVERRRA
B17: GBRAP_128_3177 (protein)
chain: SVEEVKKKTEEMMDKIINSNPEEARKIAEELFEYLKTLSPEEREAAVEVILSRLPELTAEHLEIIADVARKHRDEFDPEGAELVADLEVEALNLAEELEE
B18: GBRAP_48_5840 (protein)
chain: EEEKREKAIEEILKIIKETAELLEEAKEEGLSEAAFEAILIDAAEEIKEVLEKYLGLGEEFEKLPLEEQLAIVEELVKTYKEEGEEATRKKIKEFIEKLE
B19: GBRAP_172_5008 (protein)
chain: KPTLIKKVIDSEDAEEAIAEIKEVLEEASKKKDAIVSIAVRVSDEEKAEEVEEEAEKLAKKYPNVVVEVAVTYDPSLNLEQIAEALLLEAIEEYEEKKKE

target: GABARAP, O95166; assay: median log2 fold change of GCK-ALFA target abundance (FLAG IP / Myc IP barcode read proportion) (log2 ratio); each designed protein is fused to an ALFA-tag nanobody in HEK293 cells to bring the named protein to FLAG-tagged glucokinase (GCK); Myc marks an untargeted standard; higher = target protein stabilised (more abundant); conditions: target protein: 3xFLAG-MCP-GCK-ALFA reporter; HEK293 landing pad (RPLP)
Procedure, shortened: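 An ALFA-nanobody-fused binder library was recombined into HEK293 landing-pad cells and induced with 2 μg mL^−1 doxycycline. Cells were transfected with a plasmid expressing a FLAG-tagged target and a Myc-tagged standard. After 48 h, lysates underwent anti-FLAG and anti-Myc immunoprecipitation, and circular RNA barcodes were reverse transcribed, amplified and sequenced. Target abundance is the per-binder median log2 ratio of FLAG to Myc barcode read proportions. Barcodes needed ≥10^−7 proportion in both replicates, binders ≥3 barcodes per replicate, and a 10^−6 pseudocount was added; the two replicates were pooled.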

Chain of GABARAP, O95166 (O95166 whole entry, the tested form may be a part): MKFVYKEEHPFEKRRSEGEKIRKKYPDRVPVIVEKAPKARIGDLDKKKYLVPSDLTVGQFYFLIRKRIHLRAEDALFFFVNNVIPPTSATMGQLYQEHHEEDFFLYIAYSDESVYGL

Binder	median log2 fold change
B1	0.201
B2	0.161
B3	0.116
B4	0.198
B5	-0.198
B6	0.234
B7	0.171
B8	0.0708
B9	-0.135
B10	0.196
B11	-0.565
B12	0.297
B13	-0.285
B14	-0.251
B15	-0.0445
B16	-0.0864
B17	0.281
B18	-0.364
B19	0.153
